The source of these data is PMC4807287.

By UniProt entry, the sequences of proteins in these tests, tags left out.
UniProt Q9Y5S8: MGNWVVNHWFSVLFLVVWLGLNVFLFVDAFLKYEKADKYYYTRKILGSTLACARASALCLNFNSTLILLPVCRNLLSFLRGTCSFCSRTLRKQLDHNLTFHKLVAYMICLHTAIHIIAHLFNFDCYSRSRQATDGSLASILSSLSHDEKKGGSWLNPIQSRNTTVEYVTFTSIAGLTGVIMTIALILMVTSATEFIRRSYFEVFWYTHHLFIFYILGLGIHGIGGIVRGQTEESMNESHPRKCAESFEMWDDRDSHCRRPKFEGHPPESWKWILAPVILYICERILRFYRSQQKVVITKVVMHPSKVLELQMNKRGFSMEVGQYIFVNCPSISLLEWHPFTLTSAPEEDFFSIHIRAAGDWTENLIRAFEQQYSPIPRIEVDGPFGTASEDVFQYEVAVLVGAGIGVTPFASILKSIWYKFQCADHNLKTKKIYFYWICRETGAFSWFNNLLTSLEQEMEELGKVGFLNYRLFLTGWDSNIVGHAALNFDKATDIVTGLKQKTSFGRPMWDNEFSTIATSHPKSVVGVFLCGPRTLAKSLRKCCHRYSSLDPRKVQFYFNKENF

Experiment [1] deals with T1, NADPH oxidase 4 (human NOX4), overexpressed in HEK293 cells (human) (UniProt Q9NPH5).
T1 sequence: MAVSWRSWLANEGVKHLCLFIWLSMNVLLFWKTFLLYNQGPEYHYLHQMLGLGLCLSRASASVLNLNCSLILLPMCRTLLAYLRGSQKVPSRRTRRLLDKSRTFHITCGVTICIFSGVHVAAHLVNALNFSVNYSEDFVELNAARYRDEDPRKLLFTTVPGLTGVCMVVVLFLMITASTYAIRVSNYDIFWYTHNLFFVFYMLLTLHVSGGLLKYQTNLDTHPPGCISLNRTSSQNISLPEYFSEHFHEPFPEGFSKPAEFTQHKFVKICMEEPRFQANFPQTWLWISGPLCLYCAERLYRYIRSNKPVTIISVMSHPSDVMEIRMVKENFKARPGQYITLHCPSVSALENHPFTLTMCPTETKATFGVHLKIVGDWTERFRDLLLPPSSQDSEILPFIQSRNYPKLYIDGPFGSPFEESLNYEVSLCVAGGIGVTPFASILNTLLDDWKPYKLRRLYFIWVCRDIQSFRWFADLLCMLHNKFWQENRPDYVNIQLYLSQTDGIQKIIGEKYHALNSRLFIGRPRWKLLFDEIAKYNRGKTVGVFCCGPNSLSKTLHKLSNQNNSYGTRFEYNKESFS
Put plainly: co-IP; IP with NOX4 antibody on magnetic protein G beads from Ctl and NOX4-HEK293 cells (1% digitonin lysate or digitonin-solubilised 100,000 x g membranes); Western blot for CANX.

For experiment [2], the target named is T1, NADPH oxidase 4 (human NOX4), overexpressed in HEK293 cells (human). Kind of experiment: native gel or EMSA; BN-PAGE of 15,000 x g membrane pellets of NOX4-HEK293 cells solubilised with digitonin (6 g/g protein); MS-based complexome profiling of 40 gel fractions and two-dimensional BN/SDS-PAGE Western blot; co-migration.
Another experiment has as its target T2, NOX4-YFP fusion protein (UniProt Q9NPH5).
T2 sequence: T1 sequence
Kind of experiment: co-IP; HEK293 cells transiently transfected with GFP, NOX1-YFP, NOX2-YFP or NOX4-YFP; IP with anti-GFP antibody; Western blot for CANX.

A further experiment addresses T3, NOX2-YFP fusion protein (UniProt P04839).
T3 sequence: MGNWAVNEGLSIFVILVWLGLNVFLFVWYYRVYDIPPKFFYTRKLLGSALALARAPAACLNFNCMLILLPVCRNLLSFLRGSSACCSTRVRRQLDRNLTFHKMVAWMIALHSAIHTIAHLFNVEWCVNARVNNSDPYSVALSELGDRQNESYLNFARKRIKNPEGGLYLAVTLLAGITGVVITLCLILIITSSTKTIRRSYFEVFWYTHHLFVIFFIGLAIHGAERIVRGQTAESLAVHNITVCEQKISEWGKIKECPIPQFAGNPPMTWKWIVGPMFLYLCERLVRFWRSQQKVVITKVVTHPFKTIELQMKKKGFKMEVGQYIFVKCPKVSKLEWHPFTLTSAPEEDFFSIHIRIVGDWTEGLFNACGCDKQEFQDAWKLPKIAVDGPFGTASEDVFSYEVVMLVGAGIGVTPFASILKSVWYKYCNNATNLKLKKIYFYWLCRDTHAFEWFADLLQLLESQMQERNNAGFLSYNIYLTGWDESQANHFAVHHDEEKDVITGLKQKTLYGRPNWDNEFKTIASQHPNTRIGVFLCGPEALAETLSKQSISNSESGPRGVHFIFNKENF
The experiment is described as above.

In the next experiment the target is NOX1-YFP fusion protein (UniProt Q9Y5S8). The experiment is described as above.
Experiment [3] has as its target T1, NADPH oxidase 4 (human NOX4), overexpressed in HEK293 cells (human). Kind of experiment: proximity ligation; Duolink PLA on formaldehyde-fixed, Triton-permeabilised cells with rabbit monoclonal anti-NOX4 and anti-CANX (sc-6465) antibodies; controls were the CANX antibody blocking peptide, omission of the NOX4 antibody, and Nox4-/- or Canx-/- cells; done in NOX4-HEK293 cells, mouse podocytes and MEFs.

Results are given in words; binding and its absence hold for the method and conditions named. For part of these data: Binding seen in cells or lysates may run through a third protein. Some binding calls cover weakened binding; strength is not graded here. For part of these data: Where a sequence is shown, tags or fusion partners need not be part of it.

B1: Calnexin, endogenous in HEK293 cells (protein, UniProt P27824 21-592)
chain: HDGHDDDVIDIEDDLDDVIEEVEDSKPDTTAPPSSPKVTYKAPVPTGEVYFADSFDRGTLSGWILSKAKKDDTDDEIAKYDGKWEVEEMKESKLPGDKGLVLMSRAKHHAISAKLNKPFLFDTKPLIVQYEVNFQNGIECGGAYVKLLSKTPELNLDQFHDKTPYTIMFGPDKCGEDYKLHFIFRHKNPKTGIYEEKHAKRPDADLKTYFTDKKTHLYTLILNPDNSFEILVDQSVVNSGNLLNDMTPPVNPSREIEDPEDRKPEDWDERPKIPDPEAVKPDDWDEDAPAKIPDEEATKPEGWLDDEPEYVPDPDAEKPEDWDEDMDGEWEAPQIANPRCESAPGCGVWQRPVIDNPNYKGKWKPPMIDNPSYQGIWKPRKIPNPDFFEDLEPFRMTPFSAIGLELWSMTSDIFFDNFIICADRRIVDDWANDGWGLKKAADGAAEPGVVGQMIEAAEERPWLWVVYILTVALPVFLVILFCCSGKKQTSGMEYKKTDAPQPDVKEEEEEKEEEKDKGDEEEEGEEKLEEKQKSDAEEDGGTVSQEEEDRKPKAEEDEILNRSPRNRKPRRE
In the case of B1, the binding result in experiment [1] is on record as “binds”; in experiment [2] it was “binds”; in the experiment with NOX4-YFP fusion protein, “binds”; in the experiment with NOX2-YFP fusion protein, “no binding”; with NOX1-YFP fusion protein, “no binding”; in experiment [3], “binds”.
